About 18,000 (5.8%) of roughly 310,000 compounds were called active. This list was built around the results that the source calls inconclusive (neither active nor inactive); the mix of calls is not that of the screen. Calls follow the shape of the dose curve; as a rule, active = well fitted inhibition curve with a large enough effect; inconclusive = small, poorly fitted or top-dose-only effect, or another doubt; inactive = no such curve, though single readings can be large or run the other way. No potency is given beside an inconclusive call; the fits are too rough.
Assay: Primary qHTS for delayed death inhibitors of the malarial parasite plastid, 48 hour incubation
Conditions: P. falciparum luciferase growth in erythrocytes; series mostly up to 28.7 µM
Method in brief: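 First compound was added to culture medium, then infected red cells at 0.1% parasitemia and 2% hematocrit (final). After incubation at 37 C under 5% CO2, luciferase detection reagent was dispensed and light output recorded.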
Potency is read from the fitted curve at half-maximal effect; tags tell the direction and shape of the fitted curve.

Structure (SMILES) | Potency
CC1=C(C(=O)OCCNC(=O)c2ccccc2O)C(c2ccccc2[N+](=O)[O-])C(C(=O)OCC2CCCO2)=C(C)N1 (stereo not given) | inconclusive [inhibitor, full curve]
CC1CCCN(S(=O)(=O)c2ccc(NC(=O)CN3C(=O)NC(C)(c4ccccc4)C3=O)cc2)C1 (stereo not given) | inconclusive [inhibitor, single point]
CCOC(=O)Cc1nnc2c(Nc3ccc(Cl)cc3)nc3nonc3n12 | inconclusive [inhibitor, single point]
Cc1c(NC(=O)CCCCCN2C(=O)C3C4C=CC(C4)C3C2=O)c(=O)n(-c2ccccc2)n1C (stereo not given) | inactive
CC1CCCCC1NC(=O)c1ccc(S(=O)(=O)N2CCN(C)CC2)cc1 (stereo not given) | inactive
COc1ccccc1NC(=O)CN1CCN(CC(=O)Nc2cc(C)ccc2OC)CC1 | inconclusive [inhibitor, full curve, poor fit]
CCOc1ccc(C(=O)Nc2cccc3ncccc23)cc1Cl | inactive
COc1cccc(C(=O)Nc2cc(C)nn2-c2ccccc2)c1OC | inconclusive [inhibitor, partial curve, poor fit]
CCN(Cc1cc2cccc(C)c2[nH]c1=O)C(=O)c1ccccc1OC | inconclusive [inhibitor, full curve]
COC(=O)c1ccccc1S(=O)(=O)N1CCC(C(=O)OCC(=O)c2ccccc2OC)CC1 | active: 10.4 µM
Brc1cccc(Cn2c(-c3cncs3)nc3ccccc32)c1 | active: 10.4 µM
Cc1nn(C)c(C)c1NC(=O)Nc1cccc(C(F)(F)F)c1 | inconclusive [inhibitor, full curve, poor fit]
N#Cc1cc2sc3nnc(-c4ccncc4)n3c2cc1C#N | active: 13.1 µM
CCCN1C(=S)c2ccccc2C1c1ccccc1 (stereo not given) | inconclusive [inhibitor, partial curve, poor fit]
COc1ccc(NC(=O)CN(c2cc(C)cc(C)c2)S(=O)(=O)c2c(C)noc2C)cc1OC | inconclusive [inhibitor, single point]
CCn1c(SCC(=O)N2CCCC(C)C2)nc2c1c(=O)n(C)c(=O)n2C (stereo not given) | inconclusive [inhibitor, full curve, poor fit]
COc1cccc(NC(=O)c2cc(-c3ccc(C)o3)nc3ccccc23)c1 | inconclusive [inhibitor, single point]
CC(=O)Nc1ccc(Oc2nc(-c3ccccn3)nc3ccccc23)cc1 | inconclusive [inhibitor, partial curve, poor fit]
CCSc1nc(N2CCOCC2)c2ccccc2n1 | inconclusive [inhibitor, single point]
COc1cccc(NC(=O)CN(C)C(=O)CNC(=O)c2sc3ccccc3c2Cl)c1 | inconclusive [inhibitor, single point]

Structure (SMILES) | Potency
CCOc1cc(/C=N/Nc2nc3ccccc3[nH]2)cc(Br)c1OCC(=O)N(C)C | inconclusive [inhibitor, full curve]
COc1ccc(Cl)cc1N/C(N)=N/c1nc(C)cc(C)n1 | inconclusive [inhibitor, single point]
Cc1ccc2c(c1)C1CN(C)CCC1N2Sc1ccccc1[N+](=O)[O-] (stereo not given) | inconclusive [inhibitor, single point]
CC(=O)Nc1ccc(S(=O)(=O)NNC(=O)c2ccc(S(=O)(=O)N3CCCCC3)cc2)cc1 | inconclusive [inhibitor, partial curve, poor fit]
CC1Cc2nc(SCC(=O)Nc3ccc(F)cc3)n(C)c(=O)c2S1 (stereo not given) | inconclusive [inhibitor, partial curve, poor fit]
COc1ccc(S(=O)(=O)N2CCCN(Cc3cccc(F)c3)CC2)cc1 | inactive
CCOc1ccc(N2C(=O)CC(Sc3nc(CC(C)C)ccc3C#N)C2=O)cc1 (stereo not given) | inconclusive [inhibitor, partial curve, poor fit]
O=C(CCCc1nc(-c2ccccc2Cl)no1)NC1CCCC1 | inconclusive [inhibitor, partial curve, poor fit]
CN1C(=O)C(CC(=O)Nc2ccc(F)cc2)N(CCCc2ccccc2)C1=S (stereo not given) | inconclusive [inhibitor, partial curve, poor fit]
CCOC(=O)C1(CCc2ccccc2)CCN(Cc2ccc(O)cc2)CC1 | inconclusive [inhibitor, partial curve]
Cc1onc(-c2ccccc2Cl)c1C(=O)N1CCN(C/C=C/c2ccccc2)CC1 | inconclusive [inhibitor, single point]
O=C(COC(=O)c1ncc(Cl)c(Cl)c1Cl)NCc1cccs1 | inconclusive [inhibitor, single point]
Cc1ccc(-n2c(C)cc(/C=N/NC(=O)c3ccc(CN4CCOCC4)cc3)c2C)cc1 | inconclusive [inhibitor, single point]
Cc1cc(NC(=O)CNC(=O)C2CCCCC2)no1 | inactive
O=c1c2ccccc2[nH]c(=S)n1-c1ccc2c(c1)OCCO2 | inconclusive [inhibitor, single point]
Cc1ccc(COc2ccc(/C=N/NC(=O)c3nnn(-c4nonc4N)c3COc3ccc(F)cc3)cc2)cc1 | inconclusive [inhibitor, single point]
C#CCOCCOCCOCCNc1nc(N2CCN(C(=O)CCCCCCCCCCNC(=O)[C@H]([C@@H](C)CC)n3cc(CCCCN=C(N)N)nn3)CC2)nc(N2CCN(C(=O)CCCCCCCCCCNC(=O)[C@H](CCCCN)n3cc(C[C@@H](C)CC)nn3)CC2)n1 | active: 9.28 µM
COc1ccc(Cc2nnc(NC(=O)c3ccccc3C)s2)cc1 | inactive
COCCNC(=O)C1CCN(S(=O)(=O)c2ccccc2)CC1 | inconclusive [inhibitor, single point]
Cc1cc(C)nc(SCCc2ccncc2)n1 | inconclusive [inhibitor, partial curve, poor fit]

Reference: PubChem BioAssay AID504832 (National Center for Advancing Translational Sciences (NCATS), 2011)
